Several values for one entry are separate records, joined by “and”; a condition that tells them apart may be missing. Equal entries are not always repeated. Out of some 420,000 compounds screened, about 64,000 (15%) were called active. The shares of active, inactive and inconclusive entries below differ from those in the screen. The call rests on the fitted dose curve; in most records, active means well fitted inhibition curve with a large enough effect; inconclusive means small, poorly fitted or top-dose-only effect; inactive means flat fitted curve, though single readings scatter. Where the call is inconclusive, the potency comes from a doubtful curve fit.
Test: qHTS for Inhibitors of human tyrosyl-DNA phosphodiesterase 1 (TDP1): qHTS in cells in absence of CPT; further: nearly all actives have a fitted effect of over 55% in size
Conditions: DT40 Tdp1-/- hTDP1 cells, no CPT, ATP luminescence, 48 h; activity change, negative = growth inhibition: at 46.2 µM (top of the series) unless noted
Method in brief: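 Camptothecin absent (DMSO only). Human TDP1-complemented DT40 knockout cells, 400 cells/well, 37 °C for minimum 48 hr; ATP measured via CellTiter-Glo, 30 min dark incubation, luminescence.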
On the % scale 0 is the no-effect control and ±100 the full control effect; potency means the concentration at half of the fitted maximal effect; tags describe the fitted curve by direction and shape.

SMILES	Potency	activity change, negative = growth inhibition
CN(C)c1ccc(CNC(=O)c2cc3cc(S(=O)(=O)N4CCCCC4)ccc3n2C)cc1	inconclusive: 13 µM [inhibitor, partial curve]	–
COC(=O)c1sccc1NC(=O)Nc1ccc(F)cc1	–	inactive: -1.19%
CC(C)Nc1nc(NCCOc2ccccc2Cl)c2sc(-c3ccccc3)cc2n1	active: 6.51 µM	–
CC(C)OCCCN1CN(S(=O)(=O)c2cccc(Cl)c2)c2nc3ccccc3nc21	inconclusive: 29.1 µM [inhibitor, single point]	–
COc1cc(NC2CCCCC2O)c2nc(-c3ccc(Cl)cc3)ccc2c1 (stereo not drawn)	inconclusive: 18.4 µM [inhibitor, single point]	–
Cc1cccc(N(Cc2ccccc2)C(=O)c2cc(S(=O)(=O)N3CCOCC3)ccc2Cl)c1	active: 14.6 µM	–
CC(=O)N1CCC(C(=O)OCc2ccccc2F)(c2ccccc2)CC1	active: 20.6 µM	–
COc1cc2c(cc1NC(=O)/C=C/c1ccccc1)oc1ccccc12	inconclusive: 29.1 µM [inhibitor, single point]	–
COc1ccc(C2NC(=O)CCC2[N+](=O)[O-])c(OC)c1OC (stereo not drawn)	–	inactive: -6.61%
Cc1ccc(-c2c(N)nc3ncccn23)cc1	–	inactive: 6.62%
CC(=O)[C@H]1CC[C@H]2[C@@H]3C[C@H](C)C4=CC(=O)CC[C@]4(C)[C@H]3[C@@H](O)C[C@]12C	inconclusive: 12.8 µM [inhibitor, single point] and inconclusive: 4.61 µM [inhibitor, full curve, poor fit]	–
Cc1ccc(Cl)c2sc(NC(=O)CS(=O)(=O)c3ccc(Cl)cc3)nc12	inconclusive: 18.4 µM [inhibitor, single point]	–
CCOC(=O)CN1C(=O)N2C[C@H]3CON(C)[C@H]3C[C@H]2c2ccccc21	inconclusive: 29.1 µM [inhibitor, single point]	–
O=C(Nc1ccc(F)cc1)C(c1ccccc1)N1CCN(c2ccncc2)CC1 (stereo not drawn)	inconclusive: 18.4 µM [inhibitor, single point]	–
CCCCOc1ccc(SCCCN2CCOCC2)cc1	inconclusive: 16.4 µM [inhibitor, partial curve]	–
C=CCNC(=O)c1cc(C(=O)C(C)c2ncc(C(F)(F)F)cc2Cl)c[nH]1 (stereo not drawn)	–	inactive: -11.5%
O=C(CN1C(=O)NC2(CCCCCCC2)C1=O)Nc1ccc(OC(F)F)cc1	active: 18.4 µM	–
O=C(CSCC(=O)N1CCCCC1)Nc1nc(-c2cccs2)cs1	inconclusive: 9.2 µM [inhibitor, partial curve]	–
C(=Cc1cnnc2ccccc12)c1ccccc1	inconclusive: 29.1 µM [inhibitor, single point]	–
O=C(Nc1ccnc(=O)[nH]1)c1sc2ccccc2c1Cl	–	inactive: -16.2%
COC(=O)c1ccc2[nH]c(C)c(CN3CCCC3)c(=O)c2c1	–	inactive: 3.44%
CCOC(=O)OC(C)OC1=C(C(=O)Nc2ccccn2)N(C)S(=O)(=O)c2ccccc21 (stereo not drawn)	active: 2.11 µM	–
CCn1c(C(C)NC(=O)c2ccc(OC)c(OC)c2)nc2ccccc21 (stereo not drawn)	inconclusive: 32.6 µM [inhibitor, single point]	–
Cn1cccc1CNC(=O)Nc1ccc(Cl)c(Cl)c1	inconclusive: 1.46 µM [inhibitor, partial curve, poor fit]	–

SMILES	Potency	activity change, negative = growth inhibition
COc1ccc(-c2cn3nc(N4CCC(C(=O)Nc5cccc(Cl)c5)CC4)sc3n2)cc1	inconclusive: 29.1 µM [inhibitor, single point]	–
CCc1cc2c(SCC(=O)NC3CCCC3)ncnc2s1	inconclusive: 23.1 µM [inhibitor, partial curve]	–
Oc1ccc(N2CCN(C(c3ccncc3)c3nnnn3C3CCCC3)CC2)cc1 (stereo not drawn)	inconclusive: 16.4 µM [inhibitor, partial curve, poor fit]	–
Cc1nn(-c2ccccn2)c2c1-c1nc(N)ncc1CC2	inconclusive: 9.2 µM [inhibitor, partial curve, poor fit]	–
Cc1ccc(CNC(=O)Cc2coc3cc(C)cc(C)c23)cc1	inconclusive: 29.1 µM [inhibitor, single point]	–
O=C(Cn1c(NCCCO)nc2ccccc21)c1ccc([N+](=O)[O-])cc1	–	inactive: 0.187%
O=C(CNC(=O)c1ccccc1Br)NCCSc1ccc(Br)cc1	active: 18.4 µM	–
CS(=O)(=O)c1ccc2nc(NC(=O)C3CC3)sc2c1	–	inactive: -25.3%
CCOC(=O)NNc1ccc2nonc2c1[N+](=O)[O-]	active: 2.91 µM	–
O=Cc1ccc2[nH]ccc2c1	–	inactive: -1.94%
Cc1[nH]c2ccccc2c1/C=N/Nc1cccc(C(=O)O)c1	–	inactive: -10%
O=C(Cn1c(=O)oc2cc(S(=O)(=O)N3CCCC3)ccc21)N1CCN(c2ccccc2)CC1	–	inconclusive: -31.2% [inhibitor]
COc1ccc(N2C(S)=C(C#N)C(=O)NC2c2ccco2)cc1 (stereo not drawn)	inconclusive: 29.1 µM [inhibitor, single point]	–
CCOc1cc(-c2noc(CCCC(N)=O)n2)cc(Br)c1OC	–	inactive: -24.9%
CC(C(=O)N1CCc2ccccc21)N(C)CC(=O)Nc1ccccc1Cl (stereo not drawn)	–	inconclusive: -32% [inhibitor]
CCCn1c(SCC(=O)NCc2ccco2)nc2c1c(=O)n(C)c(=O)n2C	–	inactive: -3.66%
Cc1cccc(N2CCN(C(=O)CSCc3ccc(F)cc3)CC2)c1C	inconclusive: 25.9 µM [inhibitor, single point]	–
COC(=O)c1ccc(S(=O)(=O)NCCc2ccccc2OC)n1C	inconclusive: 29.1 µM [inhibitor, single point]	–
C=CCNc1nc(S(=O)Cc2ccc(C)cc2)nc2c1CCCC2 (stereo not drawn)	inconclusive: 29.1 µM [inhibitor, single point]	–
CN(CCOc1ccc(Br)cc1)CC(O)COc1ccc(C#N)cc1 (stereo not drawn)	active: 4.11 µM	–
COC(=O)CSc1nc(N2CCOCC2)c2c(c1C#N)CCCC2	–	inactive: -19.7%
CCCOC(=O)c1ccc(Oc2c(-c3ccc(O)cc3O)n[nH]c2C)cc1	–	inconclusive: -30.8% [inhibitor]
COc1ccc(-c2nc3cnc(N4CCOCC4)nc3n(C[C@H]3CCCO3)c2=O)cc1	–	inactive: 27.7%
O=C(NCCc1ccccc1)C(=O)NCC1OCCN1S(=O)(=O)c1cc(F)ccc1F (stereo not drawn)	inconclusive: 29.1 µM [inhibitor, single point]	–

Reference: PubChem BioAssay AID686978 (National Center for Advancing Translational Sciences (NCATS), 2013)
